Measurements from patent US20040224408A1 (published 2004).

Target: T1, Glutathione S-transferase (GST) control protein (pGEX-2T) (UniProt P08515 = GST)
T1 construct: Negative control immobilized on glutathione sepharose; also called GST beads; immobilized GST alone
Test: GST pull-down, immobilized GST control, in vitro translated 35S-labelled chemokine
Experimental: To confirm the interaction observed in yeast two-hybrid system, we performed in vitro GST pull down assays. THAP1, expressed as a GST-tagged fusion protein and immobilized on glutathione sepharose, was incubated with radiolabeled chemokines that were translated in vitro.
In vitro-translated chemokines were generated with the TNT-coupled reticulocyte lysate system (Promega, Madison, Wis., USA) using as templates pGBKT7-CCL21, -CCL19, -CXCL9, -CXCL10 and CXCL11 chemokine vectors (see Example 32) or pCMV-SPORT6-CCL5 plasmid (Image clone No. 4185200). In vitro-translated IFNγ cytokine was generated similarly using as template plasmid pGBKT7-IFNγ. A 25 μvolume of ³⁵S-labelled chemokine was incubated with immobilized GST-THAP1 or GST proteins overnight at 4° C., in the following binding buffer: 10 mM NaPO4 pH 8.0, 140 mM NaCl, 3 mM MgCl₂, 1 mM dithiothreitol (DTT), 0.05% NP40, and 0.2 mM phenylmethyl sulphonyl fluoride (PMSF), 1 mM Na vanadate, 50 mM β-glycerophosphate, 25 μg/ml chymotrypsine, 5 μg/ml aprotinin, and 10 μg/ml leupeptin. Beads were then washed 5 times in 1 ml binding buffer. Bound proteins were eluted with 2×Laemmli SDS-PAGE sample buffer, fractionated by 10% SDS-PAGE and visualized by fluorography using Amplify (Amersham Pharmacia Biotech). GST/THAP1 specifically bound to chemokines CCL21, CCL19, CCL5, CXCL9, CXCL10 and CXCL11 but not cytokine IFNγ (FIGS. 19 and 20). […]

B1: human chemokine IP10/CXCL10, mature form ([…]) (ligand)
chain: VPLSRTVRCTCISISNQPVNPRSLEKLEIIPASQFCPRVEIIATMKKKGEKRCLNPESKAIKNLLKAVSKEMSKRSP
notes: The range is stated on the GenBank entry; Tested as a Gal4-BD fusion (pGBKT7-CXCL10) and as in vitro translated 35S-labelled protein from that vector
Question: Does B1 bind?
Answer: Result: no binding
